Measurements as given in the supplement of paper PMC9046079.
Where a name gives a salt, the structure may show the parent alone. ± gives the standard deviation of the averaged measurements. The list shows a part of the results.

Key:
[1] = system: murine small intestinal organoids (ENR+CD Paneth differentiation); assay: cellular ATP (CellTiter-Glo 3D) relative to plate median (log10 fold change); higher = more viable cells; settings: 6 d
[2] = system: murine small intestinal organoids (ENR+CD Paneth differentiation); assay: carbachol-stimulated secreted lysozyme activity relative to plate median (log10 fold change); higher = more Paneth cell lysozyme secretion; settings: 6 d, carbachol 10 µM
[3] = system: murine small intestinal organoids (ENR+CD Paneth differentiation); assay: basal (non-stimulated) secreted lysozyme activity relative to plate median (log10 fold change); higher = more Paneth cell lysozyme secretion; settings: 6 d
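Throughout, for basal (non-stimulated) secreted lysozyme activity relative to plate median: ISC-enriched organoid precursors grown as 2.5D pseudo-monolayer on Matrigel, compound given on day 0 and day 3, plate values LOESS-normalized before median fold change, three murine donors.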
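Throughout, for cellular ATP (CellTiter-Glo 3D) relative to plate median: 2.5D pseudo-monolayer culture of ISC-enriched organoids partly embedded atop Matrigel, compound added on day 0 and again on day 3, per-plate LOESS correction before median fold change.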

Structure (SMILES)	cellular ATP (log10) ([1]; 0.08 µM)	cellular ATP (log10) ([1]; 0.4 µM)	cellular ATP (log10) ([1]; 2 µM)	cellular ATP (log10) ([1]; 10 µM)	carbachol-stimulated secreted lysozyme activity (log10) ([2]; 0.08 µM)	carbachol-stimulated secreted lysozyme activity (log10) ([2]; 0.4 µM)	carbachol-stimulated secreted lysozyme activity (log10) ([2]; 2 µM)	carbachol-stimulated secreted lysozyme activity (log10) ([2]; 10 µM)	basal (log10) ([3]; 0.08 µM)	basal (log10) ([3]; 0.4 µM)	basal (log10) ([3]; 2 µM)	basal (log10) ([3]; 10 µM)
CC(C(O)c1ccc(O)cc1)N1CCC(Cc2ccccc2)CC1 (centres undefined) [Ifenprodil Tartrate]	0.102 ± 0.31	0.111 ± 0.24	-0.00333 ± 0.21	-1.03 ± 0.61	0.0154 ± 0.14	-0.0424 ± 0.007	-0.0911 ± 0.13	-0.333 ± 0.28	0.0565 ± 0.094	-0.0185 ± 0.1	0.123 ± 0.18	-0.219 ± 0.13
O=C(/C=C/c1cccc(S(=O)(=O)Nc2ccccc2)c1)NO [Belinostat (PXD101)]	-0.227 ± 0.14	-0.0555 ± 0.25	-0.782 ± 0.042	-1.12 ± 0.12	-0.057 ± 0.15	0.131 ± 0.044	-0.333 ± 0.097	-0.415 ± 0.056	0.00772 ± 0.067	0.129 ± 0.25	-0.173 ± 0.12	-0.196 ± 0.073
COc1cc2c(N3CCN(C(=O)Nc4ccc(OC(C)C)cc4)CC3)ncnc2cc1OCCCN1CCCCC1 [Tandutinib (MLN518)]	0.571 ± 0.15	0.211 ± 0.24	0.256 ± 0.15	0.46 ± 0.37	-0.00852 ± 0.17	0.171 ± 0.17	0.12 ± 0.08	0.169 ± 0.11	0.0544 ± 0.16	0.13 ± 0.099	0.141 ± 0.076	0.0796 ± 0.095
O=C(NCc1ccccc1)c1csc(Nc2ccncn2)n1 [Thiazovivin]	0.136 ± 0.12	0.0456 ± 0.13	0.348 ± 0.23	0.163 ± 0.14	0.212 ± 0.094	-0.032 ± 0.041	0.0935 ± 0.19	0.037 ± 0.0029	0.0387 ± 0.14	0.131 ± 0.081	0.00863 ± 0.096	0.0562 ± 0.18
N#CC1(c2ccc(NC(=O)c3cccnc3NCc3ccncc3)cc2)CCCC1 [Apatinib]	0.223 ± 0.12	0.302 ± 0.058	0.27 ± 0.12	0.218 ± 0.16	0.147 ± 0.13	0.0936 ± 0.057	0.122 ± 0.16	0.148 ± 0.22	0.103 ± 0.086	0.0376 ± 0.015	0.0758 ± 0.087	0.0116 ± 0.087
CC[C@H](C)C(=O)O[C@H]1C[C@@H](C)C=C2C=C[C@H](C)[C@H](CC[C@@H]3C[C@@H](O)CC(=O)O3)[C@H]21 [Lovastatin]	-0.322 ± 0.36	-0.492 ± 0.15	-1.17 ± 0.23	-1.39 ± 0.54	0.0237 ± 0.077	0.00989 ± 0.12	-0.504 ± 0.1	-0.542 ± 0.043	0.00193 ± 0.082	-0.0565 ± 0.043	-0.279 ± 0.14	-0.271 ± 0.11
CO[C@H]1C[C@@H]2CC[C@@H](C)[C@@](O)(O2)C(=O)C(=O)N2CCCC[C@H]2C(=O)O[C@H]([C@H](C)C[C@@H]2CC[C@@H](OCCO)[C@H](OC)C2)CC(=O)[C@H](C)/C=C(\C)[C@@H](O)[C@@H](OC)C(=O)[C@H](C)C[C@H](C)/C=C/C=C/C=C/1C [Everolimus (RAD001)]	0.392 ± 0.27	0.127 ± 0.42	0.132 ± 0.029	-0.111 ± 0.39	-0.0597 ± 0.063	-0.0422 ± 0.1	-0.0636 ± 0.031	-0.0963 ± 0.023	0.0678 ± 0.11	0.11 ± 0.066	-0.00343 ± 0.018	-0.0241 ± 0.027
CN(C)C(=O)[C@H](O)[C@H](Cc1ccccc1)NC(=O)c1cc2cc(Cl)ccc2[nH]1	0.0306 ± 0.33	-0.0235 ± 0.26	-0.0979 ± 0.15	-0.1 ± 0.15	0.286 ± 0.085	0.107 ± 0.13	-0.112 ± 0.17	-0.146 ± 0.17	0.177 ± 0.25	-0.0332 ± 0.051	0.0281 ± 0.25	-0.0572 ± 0.091
Cc1c(C(=O)Nc2ccc(N3C[C@@H](C)O[C@@H](C)C3)nc2)cccc1-c1ccc(OC(F)(F)F)cc1 [LDE225 (NVP-LDE225,Erismodegib)]	0.107 ± 0.17	0.0666 ± 0.25	0.229 ± 0.16	-0.000799 ± 0.47	0.0901 ± 0.042	0.0666 ± 0.14	0.0423 ± 0.048	0.0924 ± 0.041	0.0849 ± 0.016	0.101 ± 0.08	0.0108 ± 0.089	0.049 ± 0.12
NC(=O)c1ncn([C@@H]2O[C@H](CO)[C@@H](O)[C@H]2O)c1N [Acadesine]	0.0942 ± 0.15	0.173 ± 0.22	-0.00507 ± 0.11	0.0761 ± 0.085	-0.0288 ± 0.13	-0.00214 ± 0.019	0.116 ± 0.098	-0.122 ± 0.07	0.0227 ± 0.058	-0.0158 ± 0.042	0.0161 ± 0.05	-0.0697 ± 0.036
CC(C)(C)NC(=O)[C@H]1CC[C@H]2[C@@H]3CC[C@H]4NC(=O)C=C[C@]4(C)[C@H]3CC[C@]12C [Finasteride]	0.151 ± 0.15	-0.0384 ± 0.28	0.073 ± 0.25	-0.0405 ± 0.29	0.188 ± 0.073	0.167 ± 0.12	0.127 ± 0.05	-0.0231 ± 0.1	0.205 ± 0.021	0.213 ± 0.15	0.142 ± 0.043	0.0675 ± 0.11
O=C(Nc1cccc(Cl)c1)Nc1ncc(CCNc2ncnc3ccsc23)s1 [SNS-314 Mesylate]	-0.812 ± 0.79	-0.675 ± 0.5	-0.271 ± 0.39	-0.363 ± 0.47	-0.272 ± 0.048	0.075 ± 0.3	-0.0859 ± 0.19	-0.0165 ± 0.31	-0.127 ± 0.061	-0.018 ± 0.11	-0.086 ± 0.069	0.018 ± 0.22
COc1cc(F)c(C(C)C)cc1-c1ccc(C(F)(F)F)cc1CN1C(=O)O[C@H](c2cc(C(F)(F)F)cc(C(F)(F)F)c2)[C@@H]1C [Anacetrapib (MK-0859)]	-0.0897 ± 0.087	0.0353 ± 0.06	-0.094 ± 0.083	0.0313 ± 0.14	0.0291 ± 0.17	-0.0189 ± 0.087	-0.0127 ± 0.048	-0.0488 ± 0.041	0.0129 ± 0.057	0.00683 ± 0.056	-0.0148 ± 0.031	-0.0361 ± 0.054
CN1CC(=O)N2[C@H](c3ccc4c(c3)OCO4)c3[nH]c4ccccc4c3C[C@@H]2C1=O [Tadalafil]	0.451 ± 0.23	0.211 ± 0.51	-0.0883 ± 1.1	-0.315 ± 1.1	0.0904 ± 0.046	-0.219 ± 0.21	-0.122 ± 0.54	-0.262 ± 0.31	0.118 ± 0.16	-0.0414 ± 0.22	0.0177 ± 0.3	-0.0452 ± 0.33
CC(=O)O[C@]1(C(C)=O)CC[C@H]2[C@@H]3C=C(Cl)C4=CC(=O)[C@@H]5C[C@@H]5[C@]4(C)[C@H]3CC[C@@]21C [Cyproterone Acetate]	-0.11 ± 0.3	0.051 ± 0.13	-0.143 ± 0.38	-0.173 ± 0.25	0.0883 ± 0.19	-0.00844 ± 0.15	-0.147 ± 0.13	-0.175 ± 0.12	-0.0258 ± 0.099	-0.0738 ± 0.028	-0.0551 ± 0.08	-0.0806 ± 0.044
S=C=Nc1cccc(NC(=S)NCCCCNC(=S)Nc2cccc(N=C=S)c2)c1	-0.142 ± 0.18	0.061 ± 0.33	-0.159 ± 0.2	-0.228 ± 0.26	0.0431 ± 0.038	0.0189 ± 0.053	0.00683 ± 0.073	0.0702 ± 0.12	0.116 ± 0.077	0.0357 ± 0.062	0.031 ± 0.094	0.0317 ± 0.099
COc1cc2c(cc1O)CC[C@@H]1[C@@H]2CC[C@]2(C)[C@@H](O)CC[C@@H]12 [2-Methoxyestradiol (2-MeOE2)]	0.299 ± 0.55	0.401 ± 0.27	0.227 ± 0.33	-0.672 ± 0.57	0.147 ± 0.11	0.179 ± 0.25	-0.0427 ± 0.023	-0.373 ± 0.029	0.0214 ± 0.21	0.065 ± 0.22	0.00472 ± 0.012	-0.139 ± 0.11
